# In PubChem BioAssay AID602332 (National Center for Advancing Translational Sciences (NCATS), 2012):
# The whole screen tested about 420,000 compounds, of which about 75 (0.02%) were called active. Calls follow the shape of the dose curve; as a rule, active = well fitted activation curve with a large enough effect; inconclusive = small, poorly fitted or top-dose-only effect; inactive = no such curve, though single readings can be large or run the other way. Inconclusive means that the source gave no clear call. Potencies beside an inconclusive call are fits to weak or partial responses and may not hold up.
# Assay: qHTS for Inducers of the Endoplasmic Reticulum Stress Response (ERSR) in Human Glioma: qHTS; also: nearly all actives have a fitted effect of over 35% in size
# Conditions: U87-MG GRP78 promoter luciferase reporter, 16 h; activation: hits give high values
# Description: Primary protein unfolding takes place for many diseases, including diabetes and hypoxia, , and triggers a reaction in the cells called ER stress response (ERSR). ). ERSR is designed as a repair mechanism, but ultimately leads to cell death via apoptosis if conditions triggering protein unfolding persist (1). The molecular clue to ERSR activation is the enhancement of the expression of key molecular chaperones, including the glucose regulated protein (GRP) 78. GRP78 is the main sensor for protein folding and the main actuator of the ERSR.
# In a collaboration between the Southern Research Institute and the NIH Chemical Genomics Center, a cell based screen was developed that reliably uses GRP78 as a sensor to identify small molecules as inducers of ERSR. In resting conditions, GRP78 binds proteins and acts as a natural repressor. […]
# Stable transfected human glioma cell line, U87-MG, are dispensed at density 1000 cells/well into Greiner white solid bottom 1536-well assay plates. […] The assay plates will be incubated for 16 hours and developed by adding appropriate quantities of the Promega Bright Glo reagent. The plates will be incubated at room temperature for 10 minutes prior to being transferred into a ViewLux high-throughput CCD imager (PerkinElmer), wherein end-point measurements of luminescence are acquired.
# Potency is read from the fitted curve at half-maximal effect; tags tell the direction and shape of the fitted curve.
row,SMILES,Potency
1,O=C1NN(c2ccc(F)c(Cl)c2)C(=O)/C1=C\c1cccc(OC(=O)c2cccs2)c1,"inconclusive: 50.1 µM [activator, single point]"
